# Inconclusive results and toxic doses are left out. A number of entries come with more than one value. Only these are listed. The source may hold further records. Results that share an entry differ for a reason that is not stated; some may be repeats, others may stem from another dose, organism or construct than stated.
# Test system: L1210 leukemia ip in BDF1 mice, survival T/C
# Experiment: NCI In Vivo Anticancer Drug Screen. Data for tumor model L1210 Leukemia (intraperitoneal) in B6D2F1 (BDF1) mice
# Details: schedule: Q01DX009 (ip), vehicle: saline, higher = longer survival
SMILES,"T/C (endpoint: median survival time, dose: 0.39 mg/kg/injection)","T/C (endpoint: mean survival time, dose: 44.0 mg/kg/injection)"
Nc1ncn(C2OC(CO)C(O)C2O)c(=O)n1 (configuration not stated),"122 % of control, 150 % of control, 153 % of control",–
CC1CN1P(=O)(N1CC1C)N1CC1C (configuration not stated),–,117 % of control and 162 % of control

# Reference: PubChem BioAssay AID248 (DTP/NCI, 2004)
